Results are given in words; binding and its absence hold for the method and conditions named. In cells and extracts the contact can be indirect. Some binding calls cover weakened binding; strength is not graded here.
T1: QQS-11-59 (the 49 C-terminal aa of QQS) (Arabidopsis thaliana) (UniProt Q3E7K4)
T1 sequence: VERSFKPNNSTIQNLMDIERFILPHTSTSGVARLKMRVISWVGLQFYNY

T2: QQS-41-59 (the 19 C-terminal aa of QQS) (Arabidopsis thaliana) (UniProt Q3E7K4)
T2 sequence: VARLKMRVISWVGLQFYNY

T3: QQS-1-12 (the 12 N-terminal aa of QQS) (Arabidopsis thaliana) (UniProt Q3E7K4)
T3 sequence: MKTNREQEIYVE

T4: Arabidopsis Nuclear Factor Y subunit C4 (AtNF-YC4) (Arabidopsis thaliana) (UniProt Q9FMV5)
T4 sequence: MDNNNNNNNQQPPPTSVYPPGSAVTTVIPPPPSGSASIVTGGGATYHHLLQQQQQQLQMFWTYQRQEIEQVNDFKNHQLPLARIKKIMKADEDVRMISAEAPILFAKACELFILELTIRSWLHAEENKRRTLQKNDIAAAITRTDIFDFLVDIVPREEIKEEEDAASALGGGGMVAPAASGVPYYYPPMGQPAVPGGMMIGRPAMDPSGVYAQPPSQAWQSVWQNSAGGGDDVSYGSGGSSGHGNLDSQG

T5: N-terminal fragment of human NF-YC, aa 1-145 (HsNF-YC-1-145) (human) (UniProt Q13952)
T5 sequence: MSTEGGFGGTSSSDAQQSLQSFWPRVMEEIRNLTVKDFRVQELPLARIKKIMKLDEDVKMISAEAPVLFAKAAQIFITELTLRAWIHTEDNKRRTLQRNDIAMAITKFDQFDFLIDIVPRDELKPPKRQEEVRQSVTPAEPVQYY


Assays:
[1] = molecular target: T1, QQS-11-59 (the 49 C-terminal aa of QQS) (Arabidopsis thaliana); experiment: pull-down; reciprocal GST pull-down; GST-QQS fragments bound on beads as bait, NF-YC proteins as prey
[2] = molecular target: T2, QQS-41-59 (the 19 C-terminal aa of QQS) (Arabidopsis thaliana); experiment: as above
[3] = molecular target: T3, QQS-1-12 (the 12 N-terminal aa of QQS) (Arabidopsis thaliana); experiment: as above
[4] = molecular target: T4, Arabidopsis Nuclear Factor Y subunit C4 (AtNF-YC4) (Arabidopsis thaliana); experiment: pull-down; MBP pull-down; MBP-NF-YC fragments as bait, QQS fragments as prey
[5] = molecular target: T5, N-terminal fragment of human NF-YC, aa 1-145 (HsNF-YC-1-145) (human); experiment: as above

binding [1] | binding [2] | binding [3] | binding [4] | binding [5] | Binder
binds | binds | no binding |  |  | human NF-YC, full length (HsNF-YC) (protein, UniProt Q13952 1-458) MSTEGGFGGTSSSDAQQSLQSFWPRVMEEIRNLTVKDFRVQELPLARIKKIMKLDEDVKMISAEAPVLFAKAAQIFITELTLRAWIHTEDNKRRTLQRNDIAMAITKFDQFDFLIDIVPRDELKPPKRQEEVRQSVTPAEPVQYYFTLAQQPTAVQVQGQQQGQQTTSSTTTIQPGQIIIAQPQQGQTTPVTMQVGEGQQVQIVQAQPQGQAQQAQSGTGQTMQVMQQIITNTGEIQQIPVQLNAGQLQYIRLAQPVSGTQVVQGQIQTLATNAQQGQRNASQGKPRRCLKETLQITQTEVQQGQQQFSQFTDGQRNSVQQARVSELTGEAEPREVKATGNSTPCTSSLPTTHPPSHRAGASCVCCSQPQQSSTSPPPSDALQWVVVEVSGTPNQLETHRELHAPLPGMTSLSPLHPSQQLYQIQQVTMPAGQDLAQPMFIQSANQPSDGQAPQVTGD
 |  |  | no binding |  | VISWVGLQFYNY (domain or fragment, UniProt Q3E7K4 48-59) [QQS-48-59 (the 12 C-terminal aa of QQS)]
 |  |  | binds | binds | VARLKMRVISWVGLQFYNY (domain or fragment, UniProt Q3E7K4 41-59) [QQS-41-59 (the 19 C-terminal aa of QQS)]
 |  |  | no binding |  | RSFKPNNSTIQNLMDIERFILPHTSTSGVARLKMR (domain or fragment, UniProt Q3E7K4 13-47) [QQS-13-47 (the middle 35 aa of QQS)]

The remaining lines, values behind:

Binder | binding [1] | binding [2] | binding [3] | binding [4] | binding [5]
Arabidopsis Nuclear Factor Y subunit C4 (AtNF-YC4) (protein, UniProt Q9FMV5 1-250) MDNNNNNNNQQPPPTSVYPPGSAVTTVIPPPPSGSASIVTGGGATYHHLLQQQQQQLQMFWTYQRQEIEQVNDFKNHQLPLARIKKIMKADEDVRMISAEAPILFAKACELFILELTIRSWLHAEENKRRTLQKNDIAAAITRTDIFDFLVDIVPREEIKEEEDAASALGGGGMVAPAASGVPYYYPPMGQPAVPGGMMIGRPAMDPSGVYAQPPSQAWQSVWQNSAGGGDDVSYGSGGSSGHGNLDSQG | binds | binds |  |  | 
N-terminal fragment of human NF-YC, aa 1-145 (HsNF-YC-1-145) (domain or fragment, UniProt Q13952 1-145) MSTEGGFGGTSSSDAQQSLQSFWPRVMEEIRNLTVKDFRVQELPLARIKKIMKLDEDVKMISAEAPVLFAKAAQIFITELTLRAWIHTEDNKRRTLQRNDIAMAITKFDQFDFLIDIVPRDELKPPKRQEEVRQSVTPAEPVQYY | binds | binds |  |  | 
VERSFKPNNSTIQNLMDIERFILPHTSTSGVARLKMRVISWVGLQFYNY (domain or fragment, UniProt Q3E7K4 11-59) [QQS-11-59 (the 49 C-terminal aa of QQS)] |  |  |  | binds | binds

Reference: paper PMC6330549
